PubChem BioAssay (NCATS)
The list shows a part of the results. Further columns of the screen follow, without active or inactive calls. For some of these results: Compounds called inactive in the main read-out are mostly missing here. Potencies come from curve fits of mixed quality, noted in brackets.

Legend:
[1] = qHTS drug screen for cell cycle checkpoint inhibitors in PARPi-resistant BRCA-mutant ovarian cancer cell lines. (AID 1963452); details: PEO1/OlaR viability, CellTiter-Glo luminescence, 96 h
In short: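 PEO1, PEO4 and PEO1/OlaR ovarian cancer cells, 600 per well, exposed 96 h at 37C to a dilution series. Viability read by CellTiter-Glo luminescence, normalized to DMSO and empty wells; activity summarized as Z-AUC.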

[2] = qHTS for identification of novel therapeutic agents for treatment of microphthalmiaassociated transcription factor (MiT) renal cell carcinoma (RCC) (AID 1963991); details: CellTiter-Glo, 48 h; for z-score: stronger effect = lower value
In short: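 Three TFE3-fusion RCC lines (UOK109, UOK124, UOK145), 500 cells/well in complete medium, were treated with MIPE 4.0 compounds for 48 hours at 37 C. Viability was by CellTiter-Glo luminescence, normalized to DMSO (100%) and empty wells (0%); curves fitted over 11 concentrations.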

[3] = measured here: PEO1 parental viability
[4] = TFE3-RCC UOK109 viability, measured here: UOK109 Z-AUC
[5] = TFE3-RCC viability, measured here: UOK124 Z-AUC
[6] = TFE3-RCC viability, measured here: UOK124 cell viability
[7] = TFE3-RCC viability, measured here: UOK145 Z-AUC
[8] = TFE3-RCC viability, measured here: UOK145 cell viability
Tags tell the direction and shape of the fitted curve.

Compound | AC50 [1, 3] | AC50 ([1]; measured here: PEO4 viability) | z-score [2, 4] | z-score [2, 5] | AC50 [2, 6] | z-score [2, 7] | AC50 [2, 8]
Cc1nn(Cc2ccccc2Cl)c(C)c1CN(C)CC(O)COc1ccc(Cl)cc1 (centres undefined) | 19.5 µM [falling, single point] | 21.9 µM [falling, single point] | 0.631 | 0.378 | 23.5 µM [falling, partial curve] | 0.506 | 20.9 µM [falling, partial curve, poor fit]
CC1(C)CNc2cc(NC(=O)c3cccnc3NCc3ccncc3)ccc21 | 19.5 µM [falling, partial curve] | 15.5 µM [falling, single point] | 0.352 | 0.46 | – | 0.314 | 20.9 µM [falling, partial curve]
COc1ccc2cc(-c3nc(-c4ccc(S(C)=O)cc4)[nH]c3-c3ccncc3)ccc2c1 (centres undefined) | 19.5 µM [falling, partial curve] | 17.4 µM [falling, single point] | 0.538 | 0.265 | 37.2 µM [falling, single point] | 0.606 | 37.2 µM [falling, single point]
COc1cc2ncn(-c3cc(OCc4ccccc4C(F)(F)F)c(C(N)=O)s3)c2cc1OC | 0.549 µM [falling, full curve] | 1.1 µM [falling, full curve] | -0.656 | -0.512 | 2.64 µM [falling, full curve] | -0.689 | 4.18 µM [falling, partial curve]
Cn1c(=O)n(-c2ccc(C(C)(C)C#N)cc2)c2c3cc(-c4cnc5ccccc5c4)ccc3ncc21 | 0.0564 µM [falling, full curve] | 0.0178 µM [falling, full curve] | -1.11 | -0.745 | 0.0187 µM [falling, full curve] | -2.93 | 0.0118 µM [falling, full curve]
